# The full ranking holds about 2,300 sequences; the median of “median log2 fold change of GCK-ALFA target abundance (FLAG IP / Myc IP barcode read proportion)” is about 0.095, and the lowest 2% start at about -0.47. The list shows a part of the results.
# B1: LC3A_28_659 (protein)
# chain: SKTRKSIEEAIKKAKEAKEKGEPAVITVTVTGDATEEDIDYVIEGLEEIAEILSSIPGSAIIIDLEAGVKEEFRDRIIDKAEELEKKYPNVTVIIAEEEE
# B2: LC3A_28_716 (protein)
# chain: SKLDESLKEALKKAKEAAEKGEEVVIEIEVPGDATEEDIEKVIKTLEEIAEILKDLPSQTIIINVDGKVKQEHIDKIADEAEKIEKKYPNVTVIIALDEN
# B3: LC3A_3_1428 (protein)
# chain: AEELLARARETLERVGLSPEARAAVLELVRRALAAGAEEEVEELIRTLEEAKNVDSERILEAAERALRRVEEEGVPIEEALRELIEEVRLLRLEEEIEEL
# B4: LC3A_28_724 (protein)
# chain: NRLEASIAAALARARALAAAGESDVIEITIPGDATEEDIERVIEALEEIAAITADLPRTDIVINVEGGVKQEHIDRLADAAEAIEARYPNVTVIIALDEE
# B5: LC3A_free_46_2411 (protein)
# chain: WVVDVTIDLLAAPQEKIDAVVARIVAGAKAIAAELGGELEIKVERFQNPDGTTSAIINITFTFDTREKAEQAAQRLGDLIDAIDEETGLVGLVSIDVSEA
# B6: LC3A_28_735 (protein)
# chain: SPLDKNLAAALAEARAAAAAGEPQVITITVPGTATQEDIEKVIKALEEIAEILKDVPDQTIIIDIEGGVPQEHIDKLMKAAEEIEKKYPNVTVIFALDED
# B7: LC3A_free_39_2283 (protein)
# chain: SAAERAEVLARLEAIAAELSPEAQALLREIVEEFRDDVEGLRALAEALERAKEEGVDMEEVLRRALAVLRQGRAAGLSLEERRAAVLAEIEDMINLQPID
# B8: LC3A_free_39_2287 (protein)
# chain: SEEELEEAVERLEELLEEIEGVSEEEKEIILEAARESLEMAKAILEALEELRRLGGDVAEAAREIAALIRELRAAGASLEERTAAVIEKARDLVNLIPID
# B9: LC3A_45_1965 (protein)
# chain: MYLATLDMLVPREHAEEVLEIAKEAMEELEKEYGEDLKVDREVLEASYEATKDEEEVLLRVEIYHPDEEKALDAAVELEERIRERSGVDIASIISLKKLP
# B10: LC3A_28_1276 (protein)
# chain: SAIDESLKKALEKAKEAKKKKESAVIEIDVPGDATEEDIDKVIKTLKEIAEILKDIPNQAIVVNVDGKVPQKYIDKIADEAEKIEKEYPNITVIIALGEE
# B11: LC3A_141_352 (protein)
# chain: MTLEYEFTIKGSDIEEALKKMEEIFEKIKEEMEKENAKSVEIEVTITSKNPKTGETTEEKIKETATKENLDLVLDSLEIEIASRVIGNDVDVKITVTFHK
# B12: LC3A_147_515 (protein)
# chain: MYEVDIDILVKREGEEEVLEELEEILEELREEGYEVEVLEKRIEREGDEVFIYVKVLIRAPTPEEAEKAVNRLISRLEELEEKHKDLILGSLISVEKIEP
# B13: LC3A_free_46_2300 (protein)
# chain: IVVEIDIYFGAAEKEKIEEAAERLTKTAKETAEKLGAEVEIDVKIIKNEDGTYTLEIKITVKVKTKEQANEFSKAIMDTVDELTKELGVAAIISIDLIEE
# B14: LC3A_free_39_2259 (protein)
# chain: SEEERRRALEELERAAAQASPKVREAVLALAELLRDNVEALKELLELLKRALEKGPKAVEILGEFAAEAVERIKAGEDKEKAFEELKKLAKAAIEIEEID
# B15: LC3A_28_1168 (protein)
# chain: SPTLESIEKALKEAKEAKEKKEPTVITIYVPGGTTEEETEKVIEAIEEIAELLKDIKGSAIIVDIDSGVKQEHIDKIIKKAEEVEKKYPNISVIIALDED
# B16: LC3A_3_1628 (protein)
# chain: MEEKVEELEKKLKEAGHDEETIEKFREVAELLIERGFEEALETLIEEMEKLLDAPSEIVLAMLEEILATVKTEDLNEEELIEKIKEIARIARNESEIIEL
# B17: LC3A_132_280 (protein)
# chain: EEEKTKKAIEKVKELAEKAKENINDEEKVEKLVKELEEYLKKVEKEYSPETVAKVHETAADEYEELSEKAEEAGKEDLALYLDSLSIEAESRALEAEKKI
# B18: LC3A_45_1935 (protein)
# chain: MYKATVDILVPKELAEKALELIKEKGKELEKKYGDKIKVDFELLEKSYEETKDEEEVYLRVEIYADDEQTALDAADELEDYLRKELNNQVSAIISIEKLP
# B19: LC3A_28_1045 (protein)
# chain: SALEASAKAAIAEAEAQFAKGEEAVVTLTVPNVPTEEAKAVVTATLAELSALSKAHGGRKVTVVIDVDGDQETLDALIDAAEAAEAADPNLTVIIAYDDP
# B20: LC3A_3_1510 (protein)
# chain: MEEFIAELRELLKKMGASEEVIELAEENLRLLLERGYEEAAKTLYELLKEMKNASNETLLAFMKEVLELLLSTDLSEEEIIEKIKEIARTAKNDEEIIEL
# B21: LC3A_23_632 (protein)
# chain: MYRLDLTIDLLGREEDVRRAVEELVRHAEEAAKEHGAEILELRVRFEVEERPDGREAFAEIHIVVEAETEEKILKVRDSLLDHLDTLGVSAVASYEIEKL
# B22: LC3A_3_1653 (protein)
# chain: GEKLIEELLAWLKEQGKSEEVLEAVRKALTALIEKGYLETAKTFAELLKELAHLPDEILLWLAEEVLRLVETSDADEETMKAEVEELATTARNEGEIEEL
# B23: LC3A_102_158 (protein)
# chain: KAEEVLEERLEEIRRLAEELEKTLSPEEAERLRELVERAEELLRKYLEELKIGAQHDMETVEGIRAELELEEIIRELEELGAEEIAEKIRELVEELKELA
# B24: LC3A_28_935 (protein)
# chain: MTVEERIEKALAEAKAAAAAGEPVVITIKVTKEDTQEEVEKIIETIKEIADILKDVKGAAIIVDVDAGVPQERVDKIADTLEEIEEKYPNINAILALDED
# B25: LC3A_147_491 (protein)
# chain: ARVDVDVLVEGEEAAEEIIEEVKEIVEEFKKKGVKVELEVEKEEIEPGIWYVRITITVEAETPEEAMAAAREIESKIDEILEKHKDRVLAALISIEEIER
# B26: LC3A_28_668 (protein)
# chain: GSLKKKLEELLKKAKEAAKKGEATVIVLEVPGDATQEDVDYFIEKLEEIAELLKDVKGSAIIVDLSGDLSQEHRDKIIDKAEEINEKYPNVTVIIALEDR
# B27: LC3A_3_1722 (protein)
# chain: FEEIKERALKVLEEKGASEETIEAARELLDALEEKGFEEAAKTLLEELEELEGVPSERLLAALLDLLHLVTEEDLSEEEIIEEIKREFRVLKEDLEIEEL
# B28: LC3A_28_1142 (protein)
# chain: SELVEEAKKKIDEDAERDKDEPEALLRVTITSEMTVEEAEEIMDHVREVVEKLKDKEKIFIVVDATEPISQEVLDTIVEKLDEIEKEFPNVSSIIALPED
# B29: LC3A_28_1062 (protein)
# chain: MEVEEEIEEALAEAEEAVAAGEEALITLTIDDEDSEEDIERKLETMEEIAELAKSLPSVTILVDVDSSREEEVTKKVSEVGDRLEKKYPNVTVIIALSEE
# Target: MAP1LC3A, Q9H492
# Assay: median log2 fold change of GCK-ALFA target abundance (FLAG IP / Myc IP barcode read proportion) (log2 ratio); each designed protein is fused to an ALFA-tag nanobody in HEK293 cells to bring the named protein to FLAG-tagged glucokinase (GCK); Myc marks an untargeted standard; higher = target protein stabilised (more abundant)
# Details: target protein: 3xFLAG-MCP-GCK-ALFA reporter; HEK293 landing pad (RPLP)
# In short: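 Sequencing of reverse-transcribed, amplified circular RNA barcodes from anti-FLAG and anti-Myc immunoprecipitates provided the readout for an ALFA-nanobody-fused binder library recombined into HEK293 landing-pad cells. Those cells were induced with 2 μg mL^−1 doxycycline, transfected with a plasmid expressing a FLAG-tagged target and a Myc-tagged standard, and lysed after 48 h. Target abundance is the per-binder median log2 ratio of FLAG to Myc barcode read proportions. Only barcodes at a proportion of ≥10^−7 in both replicates and binders with ≥3 barcodes per replicate were kept, with a 10^−6 pseudocount added before the two replicates were pooled.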
row,Binder,median log2 fold change
1,B1,-0.0944
2,B2,0.283
3,B3,0.376
4,B4,0.154
5,B5,0.135
6,B6,-0.245
7,B7,0.242
8,B8,0.257
9,B9,-0.327
10,B10,-0.0267
11,B11,0.258
12,B12,-0.205
13,B13,0.00315
14,B14,0.156
15,B15,-0.224
16,B16,0.147
17,B17,0.145
18,B18,0.0902
19,B19,-0.0481
20,B20,0.254
21,B21,-0.285
22,B22,0.293
23,B23,0.152
24,B24,0.121
25,B25,-0.0755
26,B26,0.14
27,B27,0.0858
28,B28,-0.129
29,B29,-0.166
